# Data taken from the RNAGym collection of RNA variant scans (doi:10.7554/elife.90254).
# Read counts are not given, so values of variants with three or more changes are uncertain.
# B1: LINE1-mini (parent)
# chain: GGCAGAGCUCAACACAGCGUGGCAAAGUGGCUGUGGCUAGACUGCC
# Variants of: B1
# Assay: self-cleavage, relative activity (ratio to wild type); higher = more cleavage; in vitro, sequencing; the parent is a self-cleaving ribozyme
row,Variant,self-cleavage
1,C8U A25U G33U U38A,0.12
2,C8U A26C U34G G36C G40A,0.05
3,C8U A26C U38G,0.01
4,C8U A26G A39G,0.02
5,C8U A26G G30U,0.16
6,C8U A26G G36C,0.17
7,C8U A26U G33U G35C,0.06
8,C8U A26U U34G,0.02
9,C8U A39C C42G,0.18
10,C8U A41G C42A,0.07
11,C8U A41U U43A,0.64
12,C8U C10A A11U A12U C31U,0.04
13,C8U C10A A12G C37U,0.02
14,C8U C10A C13A G17U G44A,0.02
15,C8U C10A C13G G17C U34A,0.01
16,C8U C10A G17U A24G,0.05
17,C8U C10A G19A G22U G27C C45G,0.02
18,C8U C10A G21C C23U C45U,0.01
19,C8U C10A G22U,0.04
20,C8U C10A G27U A39U,0
21,C8U C10A G29C G36C,0.03
22,C8U C10A G35C,0.03
23,C8U C10G C13G A24U C37G A39U,0.01
24,C8U C10G C13U C18G,0.02

row,Variant,self-cleavage
1,C8U C10G C15U G17C G35U A41C G44C,0.01
2,C8U C10G C18A G30A,0.01
3,C8U C10G C45A,0.04
4,C8U C10G G21A U38A G40A,0
5,C8U C10U A11C,0.06
6,C8U C10U A11C G22A G30A,0.01
7,C8U C10U A12C A16U A39G,0.02
8,C8U C10U A24U G27A G36C,0.05
9,C8U C10U C15A U32A,0.01
10,C8U C10U C18G A39U C42G G44C,0.01
11,C8U C10U G35U,0.04
12,C8U C13A A16U,1.08
13,C8U C13A C15U C23A,0.17
14,C8U C13A C18A G29C G35A C42G C46U,0.03
15,C8U C13A C18G,0.06
16,C8U C13A C23A G33A G44U,0.18
17,C8U C13A G17A G29A G30A U43C,0.14
18,C8U C13A G22U G33A,0.02
19,C8U C13A G30C,0.11
20,C8U C13A G44C,0.22
21,C8U C13A U38A,0.5
22,C8U C13G A14C C46A,0.17
23,C8U C13G C18A C45G,0.01
24,C8U C13G C23U C45U,0.07

row,Variant,self-cleavage
1,C8U C13G G21U A26U G29A,0.02
2,C8U C13U A14C,0.09
3,C8U C13U A16C C18G,0.08
4,C8U C13U A24C,0.25
5,C8U C13U A24C A25U G27A,0.05
6,C8U C13U A24G U34G,0.18
7,C8U C13U A26U C46A,0.04
8,C8U C13U A41U,0.23
9,C8U C13U C15U A16G G29C,1.23
10,C8U C13U C31G,0.31
11,C8U C13U C45U,0.23
12,C8U C13U G27C,0.14
13,C8U C13U G27U C31U G33A,0.17
14,C8U C13U G27U C37G,0.25
15,C8U C13U U20G C31U U32C,0.1
16,C8U C13U U43A,0.09
17,C8U C15A C18A U20A G30U G35U U38A,0.01
18,C8U C15A C31U G35A,0.27
19,C8U C15A G19U G27C C37G G40A C42A,0.01
20,C8U C15A U32A,0.06
21,C8U C15G A25C C37A,0.01
22,C8U C15G G21A C23A U32A G36A C42A,0.44
23,C8U C15G G21U C45U,0.02
24,C8U C15G G30C,0.15

row,Variant,self-cleavage
1,C8U C15G G35C C42A,0.11
2,C8U C15G U20A U28G,0.06
3,C8U C15G U28G G35C,0.08
4,C8U C15U A25U,0.36
5,C8U C15U C18A,0.04
6,C8U C15U C42U,0.05
7,C8U C15U G17C C23U A25C,0.17
8,C8U C15U G27U,0.11
9,C8U C15U G29C A39G,0.02
10,C8U C15U G36A,0.09
11,C8U C18A A39C,0.22
12,C8U C18A C23A,0.07
13,C8U C18A G19U A39U,0.11
14,C8U C18A G21A,0.29
15,C8U C18A G36C C37A C42G,0.05
16,C8U C18A G40U C45U,0.16
17,C8U C18A U34A C37U,0.03
18,C8U C18G A24U G27C A41U U43G,0.09
19,C8U C18G A25U U43C,0.08
20,C8U C18G A26C U32A C45U,0.05
21,C8U C18G A39C,0.03
22,C8U C18G A41U U43G,0.04
23,C8U C18G C23A G35A,0.13
24,C8U C18G G36U,0.17

row,Variant,self-cleavage
1,C8U C18G U28C A39G,0.02
2,C8U C18G U28G C31A C45G,0.07
3,C8U C18G U34A G35C,0.02
4,C8U C18G U34C A41C,0
5,C8U C18U G19C G27C G36A C42A,0.07
6,C8U C18U U34G G36C A41G G44C,0.06
7,C8U C23A G27A C46U,0.59
8,C8U C23A G27C,0.19
9,C8U C23A U34A,0.04
10,C8U C23G G27U A39U,0.1
11,C8U C23U G30C,0.04
12,C8U C23U G30U C37G C42U,0.06
13,C8U C23U G33A,0.02
14,C8U C23U G36A C37U,0.04
15,C8U C23U G36U,0.17
16,C8U C23U U28G G35C,0.61
17,C8U C31A U32G C45A,0.29
18,C8U C31A U34A,0.3
19,C8U C31U G36C,0.04
20,C8U C31U G36U U38G,0.02
21,C8U C31U G40A,0.04
22,C8U C37U U38A G40C C45G,0.08
23,C8U C42A C45A,0.02
24,C8U G17A C23A G27A U32C G36A,0.02

row,Variant,self-cleavage
1,C8U G17A C31G,0.09
2,C8U G17A G21C,0.14
3,C8U G17A G21C G27C C31U G35U,0.09
4,C8U G17A G27C U34A C37G G40A,0.42
5,C8U G17A G29U A41C U43C,0.03
6,C8U G17A G36A,0.08
7,C8U G17C A24C G30U,0.15
8,C8U G17C G21U,0.09
9,C8U G17C G21U C23G,0.02
10,C8U G17C G27C,0.01
11,C8U G17C G30U,0.19
12,C8U G17C G33U A39C,0.01
13,C8U G17C G44U,0
14,C8U G17U C37A,0.13
15,C8U G17U G22A A26G G27C,0.03
16,C8U G17U G35C,0.18
17,C8U G17U U34A G44C,0.02
18,C8U G19A C45U,0.15
19,C8U G19A G35A G36A,1.13
20,C8U G19A G36C A39C C46G,0.02
21,C8U G19C C31A A41C,0.01
22,C8U G19C U38C G40C,0.02
23,C8U G19U A26C,0.01
24,C8U G19U C23G G35A U43C,0.32

row,Variant,self-cleavage
1,C8U G19U C42A,0.04
2,C8U G19U G30C U38C C42A,0.01
3,C8U G19U U28A C42A C46G,0.01
4,C8U G21A A26C C31U,0.09
5,C8U G21A C42G C45U,0.27
6,C8U G21A G22A U32C,0.04
7,C8U G21A G22C C23A U28A C45A,0.03
8,C8U G21A G22U,0.19
9,C8U G21A G29U,1.11
10,C8U G21A G29U C37A,0.13
11,C8U G21A U28A,0.32
12,C8U G21A U28G,0.22
13,C8U G21U A24C,0.11
14,C8U G21U C42G,0.07
15,C8U G21U G29U G30A,0.22
16,C8U G21U U43A,0.02
17,C8U G22A C46U,0.16
18,C8U G22A G29A G33U C46G,0.03
19,C8U G22A G33A U34C,0.08
20,C8U G22A G33U G44U,0.1
21,C8U G22A G35C U43A,0.04
22,C8U G22C A39C G44A,0.13
23,C8U G22C C31G,0.1
